# Test results taken from PubChem BioAssay AID624418 (National Center for Advancing Translational Sciences (NCATS), 2012).
# The campaign covered roughly 410,000 compounds. About 530 (0.13%) were called active. Inconclusive results, whose numbers are uncertain, are shown with a selection of clear calls. Calls come from the whole dose curve; as a rule, active = well fitted inhibition curve with a large enough effect; inconclusive = small, poorly fitted or top-dose-only effect, or another doubt; inactive = no such curve, though single readings can be large or run the other way. Potencies beside an inconclusive call are fits to weak or partial responses and may not hold up.
# Test: qHTS of GLP-1 Receptor Inverse Agonists: Cytotox Screen
# Conditions: HEK293 cAMP-luciferase reporter cells, luminescence, 24 h; activity change, negative = inhibition: at 38.3 µM (top of the series) unless noted
# Procedure, shortened: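 MLSMR compounds, 24 hr on cells at 37 deg C/5% CO2; luminescence after luciferase reagent (12 min RT). Inhibition counted as the undesired cytotoxic outcome.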
# % is set by controls: 0 for no effect and ±100 for the full control effect; potency is the fitted concentration of half-maximal effect.
SMILES,Potency,"activity change, negative = inhibition"
COc1cc2cc(CCCOC(=O)CCCC(=O)O)oc(=O)c2cc1OC,"inconclusive: 31.6 µM [inhibitor, partial curve, poor fit]",–
COc1cccc(N/C(=N/C(=S)Nc2ccc(C)cc2C)Nc2nc(C)cc(C)n2)c1,"inconclusive: 10 µM [inhibitor, partial curve, poor fit]",–
COc1cc(C(=O)N/N=C(\C)Cc2ccccc2)cc(OC)c1OC,"inconclusive: 1.41 µM [inhibitor, full curve]",–
COc1ccc(Cl)cc1NC(=O)Cn1c2ncccc2c(=O)n1-c1ccc(C)c(C)c1,–,inactive: 1.97%
CCOc1cc(-c2nc(-c3ccc(-c4ccc(C)cc4)nc3OC)no2)cc(OCC)c1OCC,–,inactive: 0.353%
COc1ccc(NC(=O)Cn2ccc3c(OC)cccc3c2=O)cc1,"inconclusive: 25.1 µM [inhibitor, single point]",–
O=C(Nc1nnc(-c2cccs2)o1)c1cccc(Oc2ccccc2)c1,"inconclusive: 28.2 µM [inhibitor, single point]",–
Fc1ccc(CNCCC(Cc2ccccc2)c2ccco2)cc1 (stereo not drawn),"inconclusive: 11.2 µM [inhibitor, single point]",–
CSc1ccc(CN2CCC(CO)(Cc3ccc(Cl)cc3)CC2)cc1,"inconclusive: 28.2 µM [inhibitor, single point]",–
Cc1[nH]n(-c2ccccc2)c(=O)c1C1(C(F)(F)F)C(=O)N(c2ccc(F)cc2)C2=C1C(=O)CC(C)(C)C2 (stereo not drawn),–,inactive: -6.76%
Cc1ccc(-c2cc(N)n3nc(-c4ccc(C)cc4)cc3n2)cc1,"inconclusive: 12.6 µM [inhibitor, single point]",–
Cc1ccc2c(c1)C1CN(C)CCC1N2C(=O)c1cccc(S(=O)(=O)N2CC(C)CC(C)C2)c1 (stereo not drawn),"inconclusive: 0.447 µM [inhibitor, partial curve, poor fit]",–
COc1ccccc1/C=N/Nc1nccnc1Cl,–,inactive: 4.21%
COc1ccc(N(C(=O)Cn2cnc3ccccc32)C(C(=O)NC2CCCCC2)c2ccccc2)cc1 (stereo not drawn),"inconclusive: 28.2 µM [inhibitor, single point]",–
COC(=O)c1sccc1NC(=O)CNC(=O)c1ccccc1,–,inactive: 2.44%
Cc1nnc(N2CCCC(C(=O)NCc3cccc(F)c3)C2)c2nn(-c3ccccc3)c(C)c12 (stereo not drawn),"inconclusive: 1.78 µM [inhibitor, partial curve, poor fit]",–
Cc1ccc(S(=O)(=O)Nc2ccc(S(=O)(=O)Nc3nccs3)cc2)cc1C,–,inactive: -7.6%
CCCNC(=O)c1ccc2c(=O)c(O)c(-c3ccc(F)cc3)[nH]c2c1,–,inactive: -10.2%
Cc1ccc(NC(=O)OCCN2CCN(Cc3ccccc3)CCC2=O)cc1,"inconclusive: 31.6 µM [inhibitor, partial curve, poor fit]",–
CCOc1ccc(CN2CCN(Cc3[nH]c4ccccc4c3C)CC2CCO)cc1 (stereo not drawn),"inconclusive: 28.2 µM [inhibitor, single point]",–
COc1cc(NC(=O)c2ccc(Cl)cc2)c(OC)cc1NC(=O)CN1CCOCC1,–,inactive: -0.871%
CCOC(=O)C1=CN(Cc2ccco2)S(=O)(=O)N(C)C1CC (stereo not drawn),–,inactive: 8%
Cn1c2c(c(=O)n(C)c1=O)C(c1ccc(Br)cc1)Nc1ccccc1O2 (stereo not drawn),"inconclusive: 2.24 µM [inhibitor, full curve, poor fit]",–

SMILES,Potency,"activity change, negative = inhibition"
CC(=O)c1cc(C#N)c(SCC(=O)OC(C)(C)C)nc1C,–,inactive: -11.7%
C[C@@H]1NC(=O)[C@H](CCC(N)=O)NC(=O)c2cc([N+](=O)[O-])cc(I)c2NCCC[C@@H](C(N)=O)NC1=O,"inconclusive: 11.2 µM [inhibitor, single point]",–
C[C@@H]1O[C@@H](Oc2c(-c3cc(O)c(O)c(O)c3)oc3cc(O)cc(O)c3c2=O)[C@H](O)[C@H](O)[C@H]1O,"inconclusive: 3.98 µM [inhibitor, full curve, poor fit]",–
Cc1noc(NS(=O)(=O)c2ccc(N/C=C\C(=O)c3ccncc3)cc2)c1C,"inconclusive: 10 µM [inhibitor, partial curve, poor fit]",–
O=C(Nc1cccc(C(=O)N2CCCCC2)c1)c1nsc2ccccc12,–,inactive: 0.316%
COc1ccc(C(=O)CSc2ncnc3nc[nH]c23)cc1,"inconclusive: 28.2 µM [inhibitor, single point]",–
COC(=O)C1=CN(c2ccc3c(c2)OCO3)C(N)=C(C#N)C1c1ccc(-c2ccccc2)cc1 (stereo not drawn),"inconclusive: 31.6 µM [inhibitor, single point]",–
Cc1ccc(CN(Cc2cccnc2)C(=S)Nc2cc(Cl)ccc2C)cc1,"inconclusive: 28.2 µM [inhibitor, single point]",–
COc1ccc(-c2csc(NC(=S)NC(=O)c3cccs3)n2)cc1OC,"inconclusive: 20 µM [inhibitor, single point]",–
CCN(CC)c1ccc(CNc2nc3ccccc3n2CCN2CCCCC2)cc1,"inconclusive: 12.6 µM [inhibitor, single point]",–
COc1ccccc1N1CCN(C(=O)c2c(-c3ccccc3)noc2C)CC1,"inconclusive: 3.55 µM [inhibitor, full curve]",–
CCCC(=O)OCCNc1cc(SCCC(=O)OC)c2nonc2c1[N+](=O)[O-],"inconclusive: 15.8 µM [inhibitor, single point]",–
CC(C)C(=O)NC(c1ccco1)c1ccc2cccnc2c1O (stereo not drawn),"inconclusive: 0.794 µM [inhibitor, full curve, poor fit]",–
O=C(O)CCCN1C(=O)/C(=C/C=C/c2ccco2)SC1=S,"inconclusive: 28.2 µM [inhibitor, single point]",–
COc1ccc(C(=O)c2coc3ccc(O)c(CN(C)C)c23)cc1,–,inactive: 2.06%
CC(C)(C)C(=O)/C(=C\c1cccc([N+](=O)[O-])c1)n1cncn1,"inconclusive: 10 µM [inhibitor, partial curve]",–
COc1cc2c(cc1Cl)/C(=C\CCN(C)C)c1ccccc1S2,"inconclusive: 14.1 µM [inhibitor, single point]",–
Cc1ccc(OCc2nc3ccccc3n2C(C(=O)Nc2c(C)cccc2C)C2CC2)cc1 (stereo not drawn),–,inactive: -0.908%
CS(=O)(=O)Nc1cccc(C2=NN(C(=O)c3ccc(F)cc3)C(c3cccs3)C2)c1 (stereo not drawn),"inconclusive: 12.6 µM [inhibitor, single point]",–
CCc1nc2n[nH]c(N)c2c2c1CSC(C)(C)C2,–,inactive: -2.55%
COc1cc(/C=C2/SC(=S)N(CC(=O)O)C2=O)ccc1OC(=O)c1cccs1,"inconclusive: 8.91 µM [inhibitor, partial curve, poor fit]",–
CC(=O)Nc1cccc(-c2ccnc3c2CC(C)(C(=O)NCc2cccc(Cl)c2)O3)c1 (stereo not drawn),"inconclusive: 12.6 µM [inhibitor, single point]",–
CCC(=O)NC(c1ccccc1OC)c1ccc2cccnc2c1O (stereo not drawn),"inconclusive: 1.26 µM [inhibitor, partial curve, poor fit]",–

SMILES,Potency,"activity change, negative = inhibition"
CCOc1cc(C2C(C(=O)OC)=C(C)NC3=C2C(=O)c2ccccc23)ccc1O (stereo not drawn),"inconclusive: 10 µM [inhibitor, partial curve, poor fit]",–
CCN1CCN(c2cc(C)c3cc(NC(=S)NCc4cccs4)ccc3n2)CC1,"inconclusive: 6.31 µM [inhibitor, partial curve, poor fit]",–
CCCCNCc1nc2ccccc2c(=O)[nH]1,"inconclusive: 14.1 µM [inhibitor, single point]",–
O=C(O)c1cccc(Cn2c(Cl)c(/C=N/Nc3ccccc3)sc2=O)c1,–,inactive: -21.9%
O=C(Nc1ccc2c(c1)CCC2)C1CCN(c2c3c(nc4ncnn24)CCC3)CC1,"inconclusive: 31.6 µM [inhibitor, partial curve, poor fit]",–
COc1ccc2c(c1)OC[C@H]1[C@H]2N2C(=O)CN(Cc3ccc(Cl)cc3)C(=O)[C@@]2(C)[C@H]1c1ccccc1,–,inactive: 11.5%
O=C(Cc1cccc2ccccc12)Nc1nnc(-c2cccc([N+](=O)[O-])c2)s1,–,inactive: 0.299%
Cc1cc(N2CCCCC2)n2ncc(-c3ccccc3)c2n1,–,inactive: 24.6%
Cc1ccc(-n2c(CCC(=O)O)ccc2-c2cccs2)cc1C,inactive,–
Cc1ccc(Cn2ccnc2C(=O)Nc2ccccc2)cc1,–,inactive: -2.8%
CCn1nnc(-c2ccccc2NC(=O)c2ccc(-n3cnnn3)cc2)n1,"inconclusive: 10 µM [inhibitor, partial curve, poor fit]",–
CN1CCN(Cc2nc3ccccc3c(=O)n2Cc2nc(-c3ccccc3F)cs2)CC1,"inconclusive: 10 µM [inhibitor, partial curve, poor fit]",–
CC(C)Cc1nc2ccccc2n1CCc1ccccc1,"inconclusive: 28.2 µM [inhibitor, single point]",–
COc1ccc(C(=O)[C@H]2[C@H]3C(=O)N(c4ccc(C)cc4)C(=O)[C@H]3C3C=CC=NN32)cc1 (stereo partly drawn),–,inactive: -8.71%
COc1ccccc1-c1nnc(Nc2nc3c(OC)cccc3s2)o1,"inconclusive: 2.82 µM [inhibitor, partial curve, poor fit]",–
O=C(NC1CCCC1)c1cc2cc(Br)ccc2o1,–,inactive: -10.8%
COc1ccc(C(=O)N2CCN(S(=O)(=O)c3ccccc3)CC2)c(OC)c1,–,inactive: -9.45%
O=S(=O)(NCCc1ccccc1)c1ccc(N2CCCCS2(=O)=O)cc1,–,inactive: 3.67%
COc1cc(/C=N/NC(=O)c2cccnc2)ccc1OCC(=O)N1CCOCC1,–,inactive: -6.39%
Cc1cc(=O)[nH]c(SCC(=O)c2ccc(C(C)C)cc2)n1,–,inactive: -6.4%
COc1cccc(-n2c(SCC(=O)NC3CCS(=O)(=O)C3)nc3ccccc3c2=O)c1 (stereo not drawn),"inconclusive: 0.501 µM [inhibitor, full curve, poor fit]",–
CCc1nnc(NS(=O)(=O)c2ccc(Nc3ccc([N+](=O)[O-])c4nonc34)cc2)s1,"inconclusive: 28.2 µM [inhibitor, single point]",–
